The supplement of paper PMC11417369
± gives the standard deviation of the averaged measurements. Some of the results follow.

Tested on: PfAP2-G AP2 domain (GST-tagged)
Assay: gcPBM binding intensity (ln(normalized median fluorescence intensity)); higher = stronger DNA binding
Method in brief: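 Binding of GST-tagged P. falciparum DNA-binding domains, expressed in E. coli and used at about 25 μg on average, was carried out for 1 h in 1× PBS containing 1% milk, 0.2 mg/ml BSA, 0.5% salmon testes DNA and 0.03% Triton X-100. The target was an Agilent 4 × 180k array of primer-extended double-stranded 36-bp intergenic genomic probes plus negative controls, read with Alexa488 anti-GST antibody at 488 nm. Binding intensity is the highest Masliner-normalised natural-log median intensity across replicate spots of either probe orientation.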

| Sequence | gcPBM binding intensity (ln) |
| --- | --- |
| AAAACATAAATACATACACACATAATATATATTAAT [CACACA_site109] | 10.1 ± 0.21 |
| TCTTTTTTTATTTTATTTTTTTTTTTTAAATAATTC [TGCATGCA_negctrl_site372] | 9.61 ± 0.21 |
| CATATTAATATTATGGGTACATATAAATTTACATTC [XGTACX_site687] | 11.4 ± 0.83 |
| CATATATTATTTATACGTACTAATAAAATAAATCAA [XGTACX_site1030] | 11.3 ± 0.84 |
| TATGATACATAAATATGTACGTATAATATATATTTA [XGTACX_site7002] | 11.4 ± 0.98 |
| GTGCATATCTGATATACACACAATAAAATAGTATGT [CACACA_site7203] | 10.02 ± 0.021 |
| AATTATATATTTGAGAGTACATATGTAATGTTTATA [XGTACX_site6970] | 11.2 ± 0.76 |
| ACATATACATATATATGTACATAAATATATATATAT [XGTACX_site8630] | 11.2 ± 0.69 |
| CCCGTAAATTATGAGTGTACGTTATTTTTTAAAATG [XGTACX_site3946] | 11.5 ± 0.95 |
| GAACGTATCATGTGTACACACAAATTGTTTTTTTTT [CACACA_site2020] | 11.7 ± 0.91 |
| AAGAATAATAATAAATGTACACAATATTATATATAT [XGTACX_site5525] | 11.3 ± 0.64 |
| AAATGAACAAGTGGCACACACACATTATAACTAATT [CACACA_site9048] | 10.2 ± 0.2 |
| TTCTAACTTTTAAACACACAAATATAAATAAGTATA [CACACA_site7473] | 9.91 ± 0.12 |
| TATATACACAAACACACACACACATACACCCACATA [CACACA_site8504] | 10.5 ± 0.5 |
| TATGTAGTCACAAGGTGTACACTTTAACAAATTATG [XGTACX_site8792] | 11.5 ± 0.88 |
| TGCAAGCTTATATAGGTGCACATGTATACGTGTTCA | 10.3 ± 0.26 |
| TTGATGTTGGTAGGATGTACGGTACCGGTAAAGTTT [XGTACX_site7705] | 11.1 ± 0.69 |
| TTTTTAATTTTTTGTTGTACATATAATATATTATTA [XGTACX_site4903] | 11.3 ± 0.63 |
| TGTATGAAATATATTACACACATATAAAATCTATAT [CACACA_site6514] | 9.805 ± 0.078 |

| Sequence | gcPBM binding intensity (ln) |
| --- | --- |
| TATATAATTATAAGAACACACATATATATATATATA [CACACA_site2472] | 10.3 ± 0.4 |
| AAATTTGAAGAATATTGTACGCATAATAATTAAATA [XGTACX_site4300] | 11.5 ± 0.95 |
| AAGCTTCATTAATATACACACATATATGCGTATATT [CACACA_site3695] | 9.93 ± 0.028 |
| ATGCTTTTTAAATGATTGCACTAGATTGTAATATGT [GTGCAC_site9666] | 10.02 ± 0.099 |
| TATATATATATTTTAACACACACATATATATATTTA [CACACA_site8892] | 9.875 ± 0.078 |
| ATATATATATATTGCACACACAATTATTATTATTAT [CACACA_site2299] | 10.3 ± 0.37 |
| TTATAGAATTTATTTACACACAAACATTTATACTTT [CACACA_site7592] | 10.1 ± 0.16 |
| TATTTATTTTCATATAGTACTTTTTTCAGGCATATA [XGTACX_site6691] | 11.2 ± 0.66 |
| ACTCCATAATATTGATGTACTATAATGCATTTATTT [XGTACX_site5562] | 10.9 ± 0.58 |
| TTTATTTATGTTGAAACATGCAAAAAGTTATTTATA [TGCATGCA_site716] | 9.87 ± 0.23 |
| TTCAAAAGCCGGATAACATGCAGTAGTAGAACAAAC [TGCATGCA_site413] | 10.15 ± 0.057 |
| TTTTATTTCTTTGCACCATTTTAAATACAAACAAAT [CACACA_negctrl_site1553] | 10.5 ± 0.33 |
| TAAAACAATACTTTGTGCTTCTCTGGTTTTTTTTTT [GTGCAC_negctrl_site284] | 9.81 ± 0.2 |
| GCTTTTAAAATAATTGGTACACATGTATAAATTCAA [XGTACX_site2327] | 11.1 ± 0.69 |
| AGTATTCACTTAATATGTACATATTTATTATAAGAG [XGTACX_site3434] | 11.3 ± 0.68 |
| TTTCTGTGTTTTGGTTGTACACACGCTACATTATAT [XGTACX_site5669] | 11.4 ± 0.71 |
| TTGTTTTTTTTTTCTATAAGCATAAAAATGATATAA [XGTACX_negctrl_site356] | 9.68 ± 0.23 |
| TTTATTTATTATTAAAGTACTAAATCATATAATTAT [XGTACX_site5727] | 10.8 ± 0.71 |
| AAATTAAAAAAATAATGTACATGTATTTATTATGTA [XGTACX_site2419] | 11.1 ± 0.6 |

| Sequence | gcPBM binding intensity (ln) |
| --- | --- |
| TGGTATATAAAACACACACACATATGTATTTATATA [CACACA_site4665] | 10.12 ± 0.092 |
| TTTTGCCTTTCTACTTGTACTTAAAATATTATAATT [XGTACX_site5483] | 11.2 ± 0.83 |
| ATTCTAAATAATAAGAGTACAAATAATATGGAGAAG [XGTACX_site5209] | 11.2 ± 0.53 |
| CACAAAAAGAAACACACACACATATATATATATATA [CACACA_site999] | 10.2 ± 0.59 |
| GAAAATATGTAATAGTGTACACATATATATGTATAT [XGTACX_site306] | 11.6 ± 1 |
| TGCTCATTCCTGTCATGTACATATTATATATATATA [XGTACX_site6890] | 11.3 ± 0.99 |
| ATATGAACATTTACATGTACATGTAAATGTAACACT [XGTACX_site4574] | 11.2 ± 0.78 |
| CATTTTTTAATAATAGCACACAGGACATACAAAACA [CACACA_site1245] | 10.8 ± 0.41 |
| AAAATATAAAGTATTTGTACATAATATATTTTTAAA [XGTACX_site3494] | 10.7 ± 0.45 |
| AATATATAAATAAATATATAAATAAATAATTGAAGC [CACACA_negctrl_site348] | 9.85 ± 0.099 |
| TTCATTAATGTGTAATGTACTTGTAATATGGGATTA [XGTACX_site3903] | 11.1 ± 0.82 |
| ACAGTATCTGGTAGCTGTACGAGTCGTAGAGTGTAG [XGTACX_site2011] | 11.3 ± 0.83 |
| AATTATTTTATGAAAAGTACACATTGTTTTAATTCT [XGTACX_site4506] | 11.4 ± 0.98 |
| TAAATAAGTATTACTAGTACACACAAGTTGTTAATC [XGTACX_site7074] | 11.3 ± 0.8 |
| CATAAATCAGCCATAACACACATACATAAATACATA [CACACA_site4380] | 10.1 ± 0.13 |
| TTAATTATAATTATATGTACGAACTTTTTTTTTTTT [XGTACX_site6586] | 11.2 ± 0.87 |
| AGAAAAAAGAGGGATACACACAAACATATATATATA [CACACA_site5269] | 10.1 ± 0.25 |
| TGTTCTCTTCTTTTTTATTTTCCAAAGTAATAAGTT [TGCATGCA_negctrl_site424] | 9.875 ± 0.035 |
| TATATATATTTATATGCATGTAATATATTTGTATTG [TGCATGCA_site323] | 9.73 ± 0.16 |
